{"source": "PubChem BioAssay AID485344", "about": "(National Center for Advancing Translational Sciences (NCATS), 2010)", "note": "The campaign covered roughly 340,000 compounds. About 6,900 (2%) were called active. Cut-off read from the data, not from the text of the source: active = inhibition above about 30%; inactive = below that, where a call was filed. This is a selection; strong and weak results do not stand in their true shares. The source gives no active or inactive call for entries shown without one.", "data": [{"target": "D(2) dopamine receptor (Homo sapiens) (UniProt P14416)", "sequence (P14416 whole entry, looked up)": "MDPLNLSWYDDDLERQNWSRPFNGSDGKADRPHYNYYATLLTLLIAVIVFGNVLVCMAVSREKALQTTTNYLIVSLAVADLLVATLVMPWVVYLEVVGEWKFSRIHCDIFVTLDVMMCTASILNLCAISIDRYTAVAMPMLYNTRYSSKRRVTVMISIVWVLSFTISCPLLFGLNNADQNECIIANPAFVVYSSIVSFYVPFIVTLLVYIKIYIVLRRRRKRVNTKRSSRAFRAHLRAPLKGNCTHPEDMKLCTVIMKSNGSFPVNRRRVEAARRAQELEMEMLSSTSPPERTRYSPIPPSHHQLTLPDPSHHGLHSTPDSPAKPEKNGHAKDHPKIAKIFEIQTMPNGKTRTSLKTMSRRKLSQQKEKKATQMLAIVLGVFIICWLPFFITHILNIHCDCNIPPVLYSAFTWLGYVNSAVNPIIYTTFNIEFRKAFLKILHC", "test": "HTS Assay for Allosteric Antagonists of the Human D2 Dopamine Receptor: Primary Screen for Antagonists; note: 0% is about no effect", "settings": "HEK293 TREx D2 cells, calcium flux, dopamine EC80; at 10 µM; stronger effect = higher value", "how_it_was_run": "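Compounds are added to dye-loaded, induced HEK293 T-REx cells coupled to calcium release via D2; after a 3 min kinetic read an EC80 dopamine stimulus is given and fluorescence is recorded for 3 more min.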", "values": [{"compound": "COc1ccc(C2C(C(=O)Nc3ccc(Cl)cc3)=C(C)Nc3nc(SCc4cccc(C)c4)nn32)cc1OC", "note": "(centres undefined)", "inhibition": "-0.174%"}, {"compound": "CC(C)(C)OC(=O)N1CCC(c2c(C(=O)N3CCN(c4ccccn4)CC3)cnn2-c2ccccc2)CC1", "inhibition": "4.83%"}, {"compound": "COc1ccccc1CNc1cc(C)nc2nc(-c3ccc(C)cc3)nn12", "inhibition": "1.99%"}, {"compound": "COc1ccc(-c2nc(C)c(CCNC(=O)c3cccs3)s2)cc1OC", "inhibition": "10.1%"}, {"compound": "Cc1ccc2nc(NC(=O)CSc3nccn3-c3ccc(Cl)cc3)sc2c1", "inhibition": "15.3%"}, {"compound": "CCN(CCCc1ccccc1)CCCc1ccccc1", "inhibition": "active: 83.1%"}, {"compound": "COc1ccc(-n2c(SCC(=O)N3CCc4ccccc43)nc3c([nH]c4ccccc43)c2=O)cc1", "inhibition": "0.216%"}, {"compound": "COc1ccc(C(=O)Nc2ccc3oc(-c4ccc(F)cc4Cl)nc3c2)cc1", "inhibition": "7.44%"}, {"compound": "Cc1ccccc1NCC(=O)N/N=C/c1c(C)c(C(=O)c2ccc(Cl)cc2)n2ccccc12", "inhibition": "active: 32%"}, {"compound": "CCc1ccc(CNC(=O)c2cc3ccccn3n2)cc1", "inhibition": "-8.08%"}, {"compound": "CCOC(=O)C1CCCN(C(=O)Cn2ncc3c(C)n(Cc4ccccc4Cl)c(C)c3c2=O)C1", "note": "(centres undefined)", "inhibition": "-11.6%"}, {"compound": "CCCc1nc2ccccc2n1CC(O)COc1ccc(C(=O)OC)cc1", "note": "(centres undefined)", "inhibition": "22.9%"}, {"compound": "Cc1ccc(CNc2oc(-c3ccc(COc4ccc(C)cc4)o3)nc2C#N)cc1", "inhibition": "-17.3%"}, {"compound": "Cc1ccc(NC(=O)c2c(C)nc3sc(C(=O)Nc4ccc(F)cc4)c(N)c3c2-c2ccc(C)o2)c(C)c1", "inhibition": "5.07%"}, {"compound": "CC1CN(C(=O)CCC(=O)Nc2cc(F)ccc2F)c2ccccc2S1", "note": "(centres undefined)", "inhibition": "-0.831%"}, {"compound": "CC(O)CNCCOc1ccccc1OCc1ccccc1", "note": "(centres undefined)", "inhibition": "active: 45.4%"}, {"compound": "Cc1ccc(C)c(NC(=O)Cn2c(=O)n(-c3ccc(CC(=O)NCC4CCCO4)cc3)c(=O)c3ccccc32)c1", "note": "(centres undefined)", "inhibition": "10.9%"}, {"compound": "Cc1ccc(OCC(=O)NCC2(N(C)C)CCCCC2)cc1C", "inhibition": "4.61%"}, {"compound": "Cn1c(CN2CCCC2)nc2cc(NS(=O)(=O)c3ccccc3)ccc21", "inhibition": "active: 67.4%"}, {"compound": "O=C(Nc1cccc(C(F)(F)F)c1)c1cc2nc(-c3ccc4c(c3)OCO4)cc(C(F)(F)F)n2n1", "inhibition": "-4.94%"}, {"compound": "COc1ccc(C2(NC(C)=O)CCN(C(=O)c3ccco3)CC2)cc1", "inhibition": "active: 32.9%"}, {"compound": "NCCc1nc2cccnc2n1-c1ccccc1", "inhibition": "14.6%"}, {"compound": "Cc1ccc(-c2nc(CSc3nncn4c3cc3occc34)c(C)o2)cc1", "inhibition": "-4.95%"}, {"compound": "COc1ccc(C)cc1NC(=O)N1CC(C)Sc2ccccc21", "note": "(centres undefined)", "inhibition": "-0.245%"}, {"compound": "Cc1ccc(Cn2cc(C(=O)c3ccc4c(c3)OCO4)c(=O)c3cc(C)ccc32)cc1", "inhibition": "-11.4%"}, {"compound": "Cc1cc(C)cc(NC(=O)c2cnc3sc(N4CCCC4)nn3c2=O)c1", "inhibition": "-15.5%"}, {"compound": "CCc1ccccc1NC(=O)c1nnn(Cc2ccc(Cl)cc2)c1N", "inhibition": "2.34%"}, {"compound": "COCCNC(=O)CSc1nc(-c2ccccc2)[nH]c1-c1ccc(OC)cc1", "inhibition": "-2.96%"}, {"compound": "CCOC(=O)C1=C(CN2CCN(c3ccc(OC)cc3)CC2)NC(=O)NC1c1ccc(Cl)cc1", "note": "(centres undefined)", "inhibition": "-1.28%"}, {"compound": "CCOc1ccc(NC(=O)C2CCCN(S(=O)(=O)c3c(C)noc3/C=C/N(C)C)C2)cc1", "note": "(centres undefined)", "inhibition": "-1.39%"}, {"compound": "CC(C)Cn1c(=O)c2sccc2n2c(CCCC(=O)N3CCN(c4ccc(F)cc4)CC3)nnc12", "inhibition": "-0.964%"}, {"compound": "Fc1ccc2[nH]c(-c3cccs3)cc2c1", "inhibition": "-3.84%"}, {"compound": "COc1cccc(-n2c(SCC(=O)Nc3nnc(C)s3)nc3c([nH]c4ccccc43)c2=O)c1", "inhibition": "-1.36%"}, {"compound": "Cc1ccc(CNC(=O)c2cnn(-c3cccc(C)c3)c2C2CCN(C(=O)OC(C)(C)C)CC2)cc1", "inhibition": "4.79%"}, {"compound": "CC(=O)c1ccc(NS(=O)(=O)c2ccc(-c3cnc(C4CC4)o3)cc2)cc1", "inhibition": "15.4%"}, {"compound": "Cc1ccc(NC(=O)c2cc3nc(-c4ccccc4)cc(-c4ccccc4)n3n2)cc1", "inhibition": "-10.9%"}, {"compound": "CCCCc1nn2c(=O)cc(COC(=O)c3ccc(NC(=O)C(CC)CC)cc3)nc2s1", "inhibition": "12.7%"}, {"compound": "CCn1cnc2c(=O)oc3ccc(S(=O)(=O)Nc4ccc(OC)cc4)cc3c21", "inhibition": "20.7%"}, {"compound": "CCOCCCn1c(=N)c(C(=O)NC2CCCC2)cc2c(=O)n3cc(C)ccc3nc21", "inhibition": "1.37%"}, {"compound": "CCC1CCCCN1S(=O)(=O)c1cc(C(=O)Nc2ccc(C)c(F)c2)ccc1F", "note": "(centres undefined)", "inhibition": "-23.3%"}, {"compound": "COc1ccc(CCNC(=O)c2ccc(Cn3c(=O)c4ccccc4n(Cc4cccc(C)c4)c3=O)cc2)cc1OC", "inhibition": "3.93%"}, {"compound": "Cc1cc(C)cc(NC(=O)Nc2nnc(N(C)C3CCCCC3)s2)c1", "inhibition": "3.77%"}, {"compound": "COc1ccccc1-c1noc(CCCC(=O)NCc2ccco2)n1", "inhibition": "13.7%"}, {"compound": "COc1cc(NC(=O)Cn2c(=O)n(CC3CCCO3)c(=O)c3ccccc32)cc(OC)c1", "note": "(centres undefined)", "inhibition": "-10.5%"}, {"compound": "CCOc1ccc(CCNc2nc3ccccc3n3c(C)nnc23)cc1OCC", "inhibition": "21.6%"}, {"compound": "COc1ccc2sc(N(Cc3cccnc3)C(=O)COc3ccccc3)nc2c1", "inhibition": "-2.15%"}, {"compound": "COc1ccc(C(=O)Nc2nnc(C(C)C)s2)cc1OC", "inhibition": "-16.1%"}, {"compound": "Cc1cccc(Oc2nc3c(c(=O)n(C)c(=O)n3C)n2Cc2ccccc2)c1C", "inhibition": "-1.62%"}, {"compound": "COc1ccc(-n2cc(-c3ccccc3)c3c(NC4CCCC4)ncnc32)cc1", "inhibition": "-8.44%"}]}]}
